# Measured values published in PubChem BioAssay (NCATS).
# This list was built around the results that the source calls inconclusive (neither active nor inactive); the mix of calls is not that of the screen. For part of these data: A potency beside an inconclusive call is a rough fit, not a confirmed value. Activity calls are given as the source filed them. Calls follow the shape of the dose curve; as a rule, active = well fitted curve in the direction sought with a large enough effect; inconclusive = small, poorly fitted or top-dose-only effect, or another doubt; inactive = no such curve, though single readings can be large; an effect the other way counts as inactive or inconclusive.
# How the values were obtained:
# [1] = qHTS screen for small molecules that inhibit ELG1-dependent DNA repair: Hit Confirmation in Cell-Based Luciferin Assay (AID 624247); details: cell-free firefly luciferase luminescence counter-screen, ViewLux; series mostly up to 46.1 µM; also: potency is read from the fitted curve at half-maximal effect
# Method in brief: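 Luciferin substrate reagent dispensed first, then compounds or DMSO vehicle pin-transferred, then luciferase enzyme added; luminescence read on a CCD-based plate reader.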
# [2] = target: ATPase family AAA domain-containing protein 5 (Homo sapiens) (UniProt Q96QE3); test: HTS assay for small molecules that inhibit ELG1-dependent DNA repair in human embryonic kidney (HEK293T) cells expressing luciferase-tagged ELG1: Hit Confirmation (AID 624248); details: HEK293T ELG1-luciferase levels, luminescence, cells co-treated with 5-fluorouridine; series mostly up to 46.1 µM; also: nearly all actives have a fitted effect of over 55% in size; also: potency is read from the fitted curve at half-maximal effect
# UniProt Q96QE3, sequence (Q96QE3 whole entry, looked up, the tested form may be a part): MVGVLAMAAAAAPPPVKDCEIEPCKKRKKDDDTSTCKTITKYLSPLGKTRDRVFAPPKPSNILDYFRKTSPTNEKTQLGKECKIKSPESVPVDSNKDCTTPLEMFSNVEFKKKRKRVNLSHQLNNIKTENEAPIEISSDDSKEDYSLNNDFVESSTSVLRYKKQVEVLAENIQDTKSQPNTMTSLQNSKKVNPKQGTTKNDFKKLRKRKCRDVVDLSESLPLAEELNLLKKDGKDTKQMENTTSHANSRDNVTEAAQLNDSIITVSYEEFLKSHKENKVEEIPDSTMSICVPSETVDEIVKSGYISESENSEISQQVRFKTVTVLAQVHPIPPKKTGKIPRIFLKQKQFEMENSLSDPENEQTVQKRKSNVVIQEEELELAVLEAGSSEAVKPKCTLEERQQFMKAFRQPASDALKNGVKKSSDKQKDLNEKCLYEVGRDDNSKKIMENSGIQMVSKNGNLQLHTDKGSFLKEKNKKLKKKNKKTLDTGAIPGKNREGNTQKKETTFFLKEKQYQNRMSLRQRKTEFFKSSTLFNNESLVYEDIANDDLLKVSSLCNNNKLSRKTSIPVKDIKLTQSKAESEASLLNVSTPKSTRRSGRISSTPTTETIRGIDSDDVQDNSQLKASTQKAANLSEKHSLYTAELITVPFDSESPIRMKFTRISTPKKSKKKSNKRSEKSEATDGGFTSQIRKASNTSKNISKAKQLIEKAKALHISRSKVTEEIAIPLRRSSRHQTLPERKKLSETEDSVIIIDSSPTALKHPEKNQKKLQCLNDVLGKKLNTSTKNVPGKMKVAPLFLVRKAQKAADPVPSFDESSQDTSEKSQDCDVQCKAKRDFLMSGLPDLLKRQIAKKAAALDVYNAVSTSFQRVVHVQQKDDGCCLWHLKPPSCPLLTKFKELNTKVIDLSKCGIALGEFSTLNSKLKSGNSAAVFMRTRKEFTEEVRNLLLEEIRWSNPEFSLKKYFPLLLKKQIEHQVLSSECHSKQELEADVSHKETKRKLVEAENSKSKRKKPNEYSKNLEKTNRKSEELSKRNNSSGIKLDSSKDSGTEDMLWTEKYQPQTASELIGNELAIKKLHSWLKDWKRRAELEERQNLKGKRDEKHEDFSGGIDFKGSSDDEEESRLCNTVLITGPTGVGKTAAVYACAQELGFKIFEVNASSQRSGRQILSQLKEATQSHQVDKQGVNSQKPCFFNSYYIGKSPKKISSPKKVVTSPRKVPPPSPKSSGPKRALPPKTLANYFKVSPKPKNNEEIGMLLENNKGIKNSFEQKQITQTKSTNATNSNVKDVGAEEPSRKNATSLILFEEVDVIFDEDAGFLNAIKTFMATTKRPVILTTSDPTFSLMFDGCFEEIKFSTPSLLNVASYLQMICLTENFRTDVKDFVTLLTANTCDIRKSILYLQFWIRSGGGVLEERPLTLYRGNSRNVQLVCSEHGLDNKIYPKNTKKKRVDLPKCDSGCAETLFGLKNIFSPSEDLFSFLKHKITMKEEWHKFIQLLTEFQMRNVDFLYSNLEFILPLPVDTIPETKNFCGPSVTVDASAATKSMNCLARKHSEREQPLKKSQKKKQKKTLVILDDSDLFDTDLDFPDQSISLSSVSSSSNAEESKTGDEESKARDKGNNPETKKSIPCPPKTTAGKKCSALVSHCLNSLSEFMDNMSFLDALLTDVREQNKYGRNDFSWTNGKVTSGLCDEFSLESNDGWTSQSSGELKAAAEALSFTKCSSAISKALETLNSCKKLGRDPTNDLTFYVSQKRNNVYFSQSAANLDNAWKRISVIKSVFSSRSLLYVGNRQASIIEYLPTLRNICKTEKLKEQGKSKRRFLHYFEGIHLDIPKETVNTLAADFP
# Method in brief: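 Suppression of ELG1-luciferase signal was read by ONE-Glo luminescence in HEK293T reporter cells after 16 h at 37 C co-treatment with compound and 5-fluorouridine as DNA-damaging agent.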
# [3] = target: ATPase family AAA domain-containing protein 5 (Homo sapiens) (UniProt Q96QE3); test: qHTS screen for small molecules that inhibit ELG1-dependent DNA repair in human embryonic kidney (HEK293T) cells expressing luciferase-tagged ELG1: Hit Confirmation using MMS Stimulated ELG1 (AID 624249); details: HEK293T luciferase-tagged ELG1 level; series mostly up to 46.1 µM; also: potency is read from the fitted curve at half-maximal effect; nearly all actives have a fitted effect of over 60% in size
# Method in brief: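 HEK293T ELG1-luc, 2,000 cells/well; ~5 h post-seed: cpd + MMS (10 µM final); 16 h; luc read w/ Amplight.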
# [4] = qHTS screen for small molecules that inhibit ELG1-dependent DNA repair: Hit Confirmation with 5FU Viability (AID 624250); details: cell viability with 5-FU; series mostly up to 46.1 µM; also: potency is read from the fitted curve at half-maximal effect
# Method in brief: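 ELG1-luc HEK293T cells, 2000/well, received compounds about 5 h after plating, together with 5-fluorouridine at 10 µM final. Viability read by CellTiter-Glo 16 h after compound addition.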
# [5] = target: Luciferin 4-monooxygenase (Photinus pyralis) (UniProt P08659); test: qHTS screen for small molecules that inhibit ELG1-dependent DNA repair: Hit Confirmation in Biochemical Luciferin Assay (AID 624253); details: purified firefly luciferase, luminescence counter-screen; series mostly up to 57.5 µM
# Method in brief: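 Counter-screen against purified firefly luciferase: substrate reagent dispensed first, then compound or DMSO by pintool, then luciferase enzyme added. Luminescence read on a CCD-based imager.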
# [6] = qHTS screen for small molecules that inhibit ELG1-dependent DNA repair: Hit Confirmation with MMS Viability (AID 624251); details: Cell viability with MMS; series mostly up to 46.1 µM; also: potency is read from the fitted curve at half-maximal effect; nearly all actives have a fitted effect of over 60% in size
# Method in brief: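 Under 10 µM MMS, compounds were tested on ELG1-luc HEK293T cells seeded at 2,000 cells/well; survival was determined by CellTiter-Glo luminescence 16 h post-addition.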
# Tags tell the direction and shape of the fitted curve.
Compound,Potency [1],Potency [2],Potency [3],Potency [4],Potency [5],Potency [6]
CC1CN(S(=O)(=O)c2ccc(C(=O)NCCCn3ccnc3)cc2)CC(C)O1 (stereo unspecified),"inconclusive: 31.5 µM [inhibitor, single point]",inactive,,,,
CC(=O)N1c2ccc(S(=O)(=O)N3CCC(C(=O)N4CCN(c5cc(Cl)ccc5C)CC4)CC3)cc2CC1C (stereo unspecified),inactive,,"inconclusive: 22.3 µM [inhibitor, partial curve]",inactive,inactive,
Cc1c(C(=O)Nc2ccc(F)cc2)oc2ccc(S(=O)(=O)N3CCC4(CC3)OCCO4)cc12,"inconclusive: 14.1 µM [inhibitor, partial curve, poor fit]",,,"inconclusive: 28.1 µM [cytotoxic, partial curve, poor fit]",,
Cc1sc2ncnc(N3CCC(C(=O)N(C)CC(=O)Nc4ccc(Cl)c(C(F)(F)F)c4)CC3)c2c1C,"inconclusive: 12.6 µM [inhibitor, partial curve, poor fit]",,,"inconclusive: 5.61 µM [rising, partial curve, poor fit]",,"inconclusive: 11.2 µM [cytotoxic, single point]"
CC(=O)Nc1cccc(-c2cnc(N)c(C(=O)c3cccnc3)n2)c1,"inconclusive: 1.41 µM [inhibitor, full curve]",,,inactive,,"inconclusive: 0.158 µM [rising, full curve, poor fit]"
O=C(Nc1cnn(Cc2ccc(F)cc2)c1)c1cnn2c(C(F)F)cc(-c3ccccc3)nc12,"inconclusive: 31.5 µM [inhibitor, partial curve, poor fit]",,,"inconclusive: 2.81 µM [rising, partial curve, poor fit]",,"inconclusive: 8.89 µM [cytotoxic, full curve]"
Cc1ccc(CNC(=O)c2oc3ccc(S(=O)(=O)N4CCC5(CC4)OCCO5)cc3c2C)cc1,"inconclusive: 11.2 µM [inhibitor, partial curve, poor fit]",,,"inconclusive: 0.25 µM [rising, full curve]",,
COc1ccc(NC(=O)C2CCN(c3ncnc4c3nc3n4CCCCC3)CC2)c(OC)c1,"inconclusive: 35.4 µM [inhibitor, single point]",active: 7.92 µM,,"inconclusive: 5.61 µM [rising, partial curve, poor fit]",,
Fc1ccc(Nc2nc(-c3ccncc3)nc3ccccc23)cc1F,inactive,,"inconclusive: 3.15 µM [inhibitor, partial curve]","inconclusive: 0.629 µM [rising, full curve]",,
COC1=C(N)C(=O)c2nc(-c3nc(C(=O)O)c(C)c(-c4ccc(OC)c(OC)c4O)c3N)ccc2C1=O,active: 2.5 µM,,,active: 2.23 µM,,active: 0.0561 µM
COC(=O)c1[nH]c2ccc(C)cc2c1NC(=O)CN1CCN(c2ccccc2)CC1,"inconclusive: 31.5 µM [inhibitor, partial curve, poor fit]",,active: 17.7 µM,"inconclusive: 35.4 µM [cytotoxic, partial curve, poor fit]",,"inconclusive: 25 µM [cytotoxic, single point]"
CCOc1ccc(NC(=O)CN(C)C(=O)C2CCN(c3ncnc4sc(C)c(C)c34)CC2)cc1OCC,"inconclusive: 17.7 µM [inhibitor, partial curve, poor fit]",,,"inconclusive: 7.92 µM [rising, full curve, poor fit]",,"inconclusive: 0.792 µM [rising, full curve, poor fit]"
COc1ccc(-n2c(C)c([N+](=O)[O-])c3ccc(O)c(CN(C)C)c32)cc1,"inconclusive: 3.54 µM [inhibitor, full curve]",,,inactive,,
COc1ccc2sc3c(=O)[nH]c4ccccc4c3c2c1,inactive,active: 1.99 µM,,inactive,,
COc1cc2c(C(=O)Nc3ccccc3F)cn(C)c(=O)c2cc1OC,inactive,active: 17.7 µM,,"inconclusive: 17.7 µM [rising, partial curve, poor fit]",,"inconclusive: 0.0997 µM [rising, partial curve]"
Cc1nc(N)nc(N)c1/C=C/C(C)(C)c1ccc(Cl)cc1,"inconclusive: 0.141 µM [inhibitor, partial curve, poor fit]",,active: 14.1 µM,"inconclusive: 2.23 µM [cytotoxic, partial curve, poor fit]",,"inconclusive: 5.61 µM [cytotoxic, partial curve]"
CC1Cc2cc(-c3csc(NC(=O)Cc4ccccc4)n3)ccc2N1S(C)(=O)=O (stereo unspecified),"inconclusive: 14.1 µM [inhibitor, partial curve, poor fit]",,,"inconclusive: 25 µM [cytotoxic, partial curve, poor fit]",,"inconclusive: 4.45 µM [cytotoxic, full curve]"
